Publication PMC4336329 (PLoS ONE, 2015)
About 14,000 (4.5%) of roughly 310,000 compounds showed an effect of 50% or more. The effect is printed as a negative number. The list shows a part of the results. Where a SMILES comes first, the peptide text is derived from it. [ ]: non-standard residue; d: D form. The star is where a group is joined. PhAc = O=C(Cc1ccccc1)*

molecular target: human ether-à-go-go-related gene (hERG) potassium channel (human, UniProt Q12809); experiment: primary screen, population patch clamp on CHO cells stably expressing hERG
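Further: peak tail current of the secondary pulse compared with the same well before compound.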

human ether-à-go-go-related gene (hERG) potassium channel, sequence (Q12809 whole entry, looked up): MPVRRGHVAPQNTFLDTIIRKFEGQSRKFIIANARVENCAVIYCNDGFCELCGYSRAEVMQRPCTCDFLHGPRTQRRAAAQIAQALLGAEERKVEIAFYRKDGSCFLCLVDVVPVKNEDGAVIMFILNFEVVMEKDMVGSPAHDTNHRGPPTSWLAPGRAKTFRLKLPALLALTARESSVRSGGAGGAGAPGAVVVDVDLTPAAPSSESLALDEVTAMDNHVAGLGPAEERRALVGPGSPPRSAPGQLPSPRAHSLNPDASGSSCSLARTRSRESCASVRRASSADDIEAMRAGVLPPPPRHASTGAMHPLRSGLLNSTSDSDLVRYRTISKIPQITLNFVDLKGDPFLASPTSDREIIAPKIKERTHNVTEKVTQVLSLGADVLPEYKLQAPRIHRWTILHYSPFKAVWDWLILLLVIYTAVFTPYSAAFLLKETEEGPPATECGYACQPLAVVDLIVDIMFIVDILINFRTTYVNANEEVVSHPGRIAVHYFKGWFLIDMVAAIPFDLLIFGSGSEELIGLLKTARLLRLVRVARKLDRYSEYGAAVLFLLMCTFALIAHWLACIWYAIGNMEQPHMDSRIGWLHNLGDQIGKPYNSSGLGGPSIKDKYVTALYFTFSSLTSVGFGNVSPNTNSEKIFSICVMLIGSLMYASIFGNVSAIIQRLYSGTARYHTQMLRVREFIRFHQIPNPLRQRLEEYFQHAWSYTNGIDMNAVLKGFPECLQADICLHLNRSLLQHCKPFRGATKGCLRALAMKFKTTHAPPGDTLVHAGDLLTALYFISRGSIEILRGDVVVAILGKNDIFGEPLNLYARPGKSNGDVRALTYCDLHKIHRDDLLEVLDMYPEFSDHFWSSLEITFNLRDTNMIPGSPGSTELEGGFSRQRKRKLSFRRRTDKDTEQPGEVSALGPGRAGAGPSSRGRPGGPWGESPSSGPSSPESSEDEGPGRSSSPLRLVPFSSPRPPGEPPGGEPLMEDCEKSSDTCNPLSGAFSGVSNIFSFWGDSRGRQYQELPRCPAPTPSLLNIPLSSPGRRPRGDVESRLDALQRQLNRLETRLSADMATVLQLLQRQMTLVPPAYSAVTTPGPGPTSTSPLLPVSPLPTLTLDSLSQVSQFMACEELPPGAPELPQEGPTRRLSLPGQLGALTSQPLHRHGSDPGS

In order of falling “hERG current change (%, negative = inhibition) at 10uM” value:
1. CC(C)C[C@@H](NC(=O)[C@H]1CCCN1C(=O)Cc1ccccc1)C(N)=O (PhAc-[dP]-[dL]-NH2)  31.7%
2. CC(C)(C)OC(=O)N1CCC[C@@H]1C(=O)N1CCC(C(=O)O)CC1  27.3%
3. Cc1cc(C)cc(OCC(=O)Nc2ccc3c(c2)C(=O)c2ccccc2C3=O)c1  22.7%
4. O=C(O)CCn1cc(/C=C2\SC(=S)NC2=O)c(-c2ccccc2)n1  21.8%
5. COC(=O)C1NC(=O)N2C(C(=O)OC)C(C)(C)S[C@H]12 (some centres unmarked)  21.7%
6. CC(C)NC(=O)NC(=O)CSc1nnc(-c2c[nH]c3ccccc23)o1  21.6%
7. CC(C)NC(=O)COC(=O)c1ccccc1CSC1=NCCS1  20.8%
8. Cc1c(Cl)cccc1NC(=S)NC(=O)CCN1C(=O)c2ccccc2C1=O  20.6%
9. Cc1[nH]c(C(=O)O)c(C#N)c1C(=O)c1ccccc1  19%
10. N#Cc1ccccc1Sc1ccccc1C(=O)Nc1ccc(Br)cc1  18.9%
11. Cc1ccc(C(=O)O)cc1NC(=O)Nc1cccc2ccccc12  16.8%
12. Cc1ccc(C)c(NC(=S)N2CCC(NC(=O)c3ccc(F)cc3)CC2)c1  15.7%
13. CNc1ccc2nnc(C(F)(F)C(F)(F)C(F)(F)F)n2n1  13.9%
14. CS(=O)(=O)c1ccc2nc(NC(=O)c3ccc(N4CCCC4=O)cc3)sc2c1  13.3%
15. O=C(O)COc1ccccc1/C=C1\C(=O)Nc2ccc(Br)cc21  12.9%
16. Cc1cc(C(=O)N2CCN(c3ncccn3)CC2)c(C)o1  12.3%
17. Cc1ccc(C23CCC(=O)N2C(C(=O)O)CS3)c(C)c1 (centres unmarked)  12.1%
18. COC(=O)COc1ccc(NC(=O)C2CCCO2)cc1 (centres unmarked)  11.6%
19. O=C(CSc1nc2ccccc2o1)N1CCCC1  10.9%
20. CSc1nsc(SC)c1C(N)=O  10.6%
21. CCOC(=O)Cc1csc(SC(C)C(=O)Nc2ccc(NC(C)=O)cc2)n1 (centres unmarked)  10.5%
22. O=C(NN1CCOCC1)c1ccc(S(=O)(=O)N2CCCCC2)cc1  9.93%
23. COC(=O)C1=C(C)N(Cc2ccc(C)cc2)C(=O)/C1=C\c1cc(OC)c(OC)c(OC)c1  9.73%
24. Cc1ccc(Nc2nnc(SCC(=O)NC3CC3)s2)cc1  9.41%
25. CCOC(=O)Cc1c(C)nc2c(-c3cccc(Br)c3)cnn2c1C  9.28%
26. Cc1nn2c(=O)cc(CSc3nc4ccccc4[nH]3)nc2s1  9.19%
27. CC(=O)Nc1ccc(S(=O)(=O)N(C)c2ccc(OCC(=O)OCC(=O)NCc3ccco3)cc2)cc1  9.09%
28. CC(=O)N(CCN(C(C)=O)c1ccccc1)c1ccccc1  8.17%
29. COC(=O)CN1CCN(C(=O)c2ccc(F)cc2)c2ccccc2C1  8.05%
30. Cc1ccc(Cl)cc1NC(=O)COC(=O)C1CCCCC1  7.48%
31. O=C(CNC(=O)c1ccc(=O)[nH]c1)Nc1ccc(F)c(F)c1  6.19%
32. O=C(O)C(=O)O.O=C(c1cccnc1)N1CCN(Cc2ccccc2Br)CC1  4.7%
33. Cc1cc(-c2nnc(CCC(=O)NCc3ccc(F)c(F)c3)o2)no1  2.95%
34. CC(=O)Nc1ccc(SCC(=O)c2cc(C)n(C)c2C)cc1  1.76%
35. CCn1cc([N+](=O)[O-])nc1C  1.09%
36. CCc1cc2cccc(C)c2nc1SCC(=O)NC1CCCC1  0.843%
37. O=C(NNC(=O)C1CCN(S(=O)(=O)c2cccc(C(F)(F)F)c2)CC1)C1CC1  0.383%
38. S=C(Nc1ccccc1)Nn1cnnc1  0.242%
39. Cn1cnnc1Sc1ccc(C(=O)OCC(=O)NCC(F)(F)F)cc1[N+](=O)[O-]  0.021%
40. CCc1nc(SCc2ccc(OC)c(Br)c2)n[nH]1  -1.48%
41. Cc1ccc2c(c1)c(C)cc[n+]2Cc1ccccc1.[Cl-]  -1.61%
42. Cc1cc2nc3n(c2cc1C)CC1CC(C(=O)NCC2CC2)N(C)C31 (centres unmarked)  -1.83%
43. Cc1ccsc1/C=N/NC(=O)Cn1nc(C)c([N+](=O)[O-])c1C  -2.17%
44. O=S(=O)(NCc1ccccn1)c1ccccc1  -2.19%
45. O=C(COc1ncnc2ccccc12)Nc1cccc([N+](=O)[O-])c1  -2.61%
46. Cc1ccc(S(=O)(=O)NCc2ccccn2)cc1C  -2.65%
47. CCOc1ccc(Br)cc1S(=O)(=O)NCc1ccncc1  -3.01%
48. COc1ccc(NC(=O)CN(c2ccc(OC)cc2)S(=O)(=O)c2ccc(OC)c(OC)c2)cc1  -3.12%
49. COc1ccc(C2CC(c3cccs3)=Nc3ccccc3S2)cc1 (centres unmarked)  -3.39%
50. O=C(c1ccc(Cl)c(S(=O)(=O)N2CCc3ccccc3C2)c1)N1CCN(c2ccccc2)CC1  -3.58%
51. CCC1=NNC(=O)C(CC(=O)Nc2ccccc2)c2cc(OC)c(OC)cc21 (centres unmarked)  -3.6%
52. CCOC(=O)c1cc(-c2ccccc2)sc1NC(=O)CC(C)C  -3.78%
53. Cc1ccc(NC(=S)N2CCN(Cc3ccccc3)CC2)c(C)c1  -3.93%
54. CN1CCN(Cc2c(O)c(Cl)cc3c(-c4ccccc4)cc(=O)oc23)CC1  -3.97%
55. C/C(Cn1cnc([N+](=O)[O-])n1)=N\NC(=O)c1cccnc1  -4.25%
56. C=CCN1C(=O)CS/C1=C(\C#N)S(=O)(=O)c1ccc(C)cc1  -5.25%
57. Cn1cccc1/C=N/n1c(-c2ccccc2)n[nH]c1=S  -6.72%
58. Cc1cc(C)cc(Oc2ccccc2/C=N\O)c1  -6.75%
59. CCN(CC)S(=O)(=O)c1ccc2[nH]cc(C(=O)NCCN3CCCCC3C)c(=O)c2c1 (centres unmarked)  -8.3%
60. CCC1(C)N=c2c(c(=O)n(C)c(=O)n2C)=NO1 (centres unmarked)  -8.49%
61. COc1cccc(CN2CC(C(=O)NCCOc3ccccc3)CCC2=O)c1 (centres unmarked)  -8.6%
62. CC(=O)Nc1cc(-c2ccc(Cl)cc2)nn1-c1ccccc1  -9.03%
63. COCc1cc(=O)n2[nH]c(SC)nc2n1  -9.64%
64. CCOC(=O)C1CCN(c2ncnc3nc[nH]c23)CC1  -9.84%
65. CCOc1ccc(C2CC(c3ccccc3)Nc3nc(N)nn32)cc1 (centres unmarked)  -10.3%
66. CCCCNC(=O)CC1N=C2c3ccccc3N=C(SCC(=O)Nc3cccc(OC)c3)N2C1=O (centres unmarked)  -10.6%
67. Cc1ccc(S(=O)(=O)NCCCN(C)C)cc1.Cl  -10.7%
68. CC/C(C)=N/Nc1nc2sc3c(c2c(=O)[nH]1)CC(C)(C)OC3  -11.7%
69. Cc1ccc(-n2nc3c(=O)n(CCCC(=O)NCc4ccc(C)o4)nc(C)c3c2C)cc1  -12%
70. FC(F)(F)c1cccc(CNC(=S)Nc2ccccc2)c1  -12.7%
71. Cc1c(OCC(=O)N2C[C@H]3C[C@@H](C2)c2cccc(=O)n2C3)ccc2c3c(c(=O)oc12)CCCC3  -13.5%
72. O=S(=O)(NC1C2CC3CC(C2)CC1C3)c1ccccc1 (centres unmarked)  -14.5%
73. CCCCC(CC)C(=O)Nc1ncc([N+](=O)[O-])s1 (centres unmarked)  -20.5%
74. COc1ccc(CN2CCCCC2C)c(C)c1C (centres unmarked)  -20.9%
75. CN(C)CCCOC(=O)c1ccc(Cl)cc1  -21.9%
76. O=C1C2CC=CCC2C(=O)N1c1ccc(NCCc2ccc(O)cc2)c([N+](=O)[O-])c1 (centres unmarked)  -25.1%
77. CCOC(=O)c1c(NC(=O)c2ccc(S(=O)(=O)N(C)CC3CCCO3)cc2)sc2c1CCN(C)C2.Cl (centres unmarked)  -25.8%
78. C=CCn1c(COc2ccc(F)cc2)nnc1SCC(=O)NC(=O)NCc1ccco1  -31.2%
79. CCOC(=O)C(=CNc1ccc(NC2=NCC(C)(C)S2)cc1)C(=O)OCC  -40.8%
80. COc1ccc(C(=O)c2c3ccc(OC)cc3[n+]([O-])n2Cc2ccc(C(N)=O)cc2)cc1  -42%
81. COC(=O)C(C)Oc1ccc2c(c1)O/C(=C\c1cccc(Br)c1)C2=O (centres unmarked)  -46.9%
82. C=CCn1c(O)c(C(C)=NC2CCN(Cc3ccccc3)CC2)c(=O)[nH]c1=O  -55.7%
83. Cc1cc(C)n(-c2nc(SCCN(C)C)c3c4c(sc3n2)COC(C)(C)C4)n1  -59.1%
84. O=C(NCc1ccc(OC(F)(F)F)cc1)C1CC2Cn3c(nc4ccccc43)C2N1Cc1ccccc1 (centres unmarked)  -62.1%
85. N#CCc1c(C#N)c(N)nc(N2CCN(c3ccc(F)cc3)CC2)c1C#N  -63.9%
86. CC1(C(=O)N2CCN(c3ccc([N+](=O)[O-])cc3)CC2)CC1(Cl)Cl (centres unmarked)  -72.7%
87. COc1ccc(-n2cc(CNCCCn3ccnc3)c(-c3cccc(F)c3)n2)cc1  -75.2%
88. CCOc1ccc(C(=O)Nc2ccccc2N2CCN(C(=O)c3ccccc3)CC2)cc1[N+](=O)[O-]  -83.3%
89. COc1ccc(F)cc1CN1CCN(CC(=O)Nc2ccccc2C(=O)NC2CC2)CC1  -87.6%
